# Reference: the supplement of paper PMC8728848
# The list shows a part of the results.
# Experiments:
# Experiment in all cases: glycan array binding signal (z-score within array); higher = stronger binding
# Conditions in all cases: glycan notation: IUPAC condensed, linker removed
# Fuc(a1-2)Gal = target: Fuc(a1-2)Gal
# How it was run: (§1)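 Glycan array binding is given as a within-array Z-score, which can be read as non-binding when negative. The arrays, 3228 of them, came from the Consortium for Functional Glycomics database and were retained only where the protein sequence was available. Z-scores were averaged across arrays of the same protein sequence at different concentrations or buffers and across linkers.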
# Fuc(a1-2)Gal(b1-3)GalNAc = target: Fuc(a1-2)Gal(b1-3)GalNAc
# How it was run: as §1
# [1] = target: Fuc(a1-2)Gal(b1-3)GalNAc(a1-3)[Fuc(a1-2)]Gal(b1-4)Glc
# How it was run: as §1
# [2] = target: Fuc(a1-2)Gal(b1-3)GalNAc(a1-3)[Fuc(a1-2)]Gal(b1-4)GlcNAc
# How it was run: as §1
# [3] = target: Fuc(a1-2)Gal(b1-3)GalNAc(b1-3)Gal
# How it was run: as §1
# [4] = target: Fuc(a1-2)Gal(b1-3)GalNAc(b1-3)Gal(a1-4)Gal(b1-4)Glc
# How it was run: as §1
# [5] = target: Fuc(a1-2)Gal(b1-3)GalNAc(b1-4)[Neu5Ac(a2-3)]Gal(b1-4)Glc
# How it was run: as §1
# Fuc(a1-2)Gal(b1-3)GlcNAc = target: Fuc(a1-2)Gal(b1-3)GlcNAc
# How it was run: as §1
# [6] = target: Fuc(a1-2)Gal(b1-3)GlcNAc(b1-2)Man(a1-3)[Fuc(a1-2)Gal(b1-3)GlcNAc(b1-2)Man(a1-6)]Man(b1-4)GlcNAc(b1-4)GlcNAc
# How it was run: as §1
# [7] = target: Fuc(a1-2)Gal(b1-3)GlcNAc(b1-2)Man(a1-3)[Fuc(a1-2)Gal(b1-3)GlcNAc(b1-2)Man(a1-6)]Man(b1-4)GlcNAc(b1-4)[Fuc(a1-6)]GlcNAc
# How it was run: as §1
# [8] = target: Fuc(a1-2)Gal(b1-3)GlcNAc(b1-3)Gal(b1-4)Glc
# How it was run: as §1
# [9] = target: Fuc(a1-2)Gal(b1-3)GlcNAc(b1-3)GalNAc
# How it was run: as §1
# [10] = target: Fuc(a1-2)Gal(b1-3)GlcNAc(b1-3)[Fuc(a1-2)Gal(b1-3)GlcNAc(b1-6)]GalNAc
# How it was run: as §1
# [11] = target: Fuc(a1-2)Gal(b1-3)GlcNAc(b1-3)[Fuc(a1-3)[Gal(b1-4)]GlcNAc(b1-6)]Gal(b1-4)Glc
# How it was run: as §1
# [12] = target: Fuc(a1-2)Gal(b1-3)GlcNAc(b1-3)[Gal(b1-4)GlcNAc(b1-6)]Gal(b1-4)Glc
# How it was run: as §1
# [13] = target: Fuc(a1-2)Gal(b1-3)GlcNAc(b1-3)[Neu5Ac(a2-6)Gal(b1-4)GlcNAc(b1-6)]Gal(b1-4)Glc
# How it was run: as §1
# [14] = target: Fuc(a1-2)Gal(b1-3)GlcNAc6S
# How it was run: as §1
# [15] = target: Fuc(a1-2)Gal(b1-3)[Fuc(a1-4)]GlcNAc
# How it was run: as §1
# [16] = target: Fuc(a1-2)Gal(b1-3)[Fuc(a1-4)]GlcNAc(b1-2)Man(a1-3)[Fuc(a1-2)Gal(b1-3)[Fuc(a1-4)]GlcNAc(b1-2)Man(a1-3)]Man(b1-4)GlcNAc(b1-4)GlcNAc
# How it was run: as §1
# [17] = target: Fuc(a1-2)Gal(b1-3)[Fuc(a1-4)]GlcNAc(b1-2)Man(a1-3)[Fuc(a1-2)Gal(b1-3)[Fuc(a1-4)]GlcNAc(b1-2)Man(a1-6)]Man(b1-4)GlcNAc(b1-4)GlcNAc
# How it was run: as §1
# [18] = target: Fuc(a1-2)Gal(b1-3)[Fuc(a1-4)]GlcNAc(b1-2)Man(a1-3)[Fuc(a1-2)Gal(b1-3)[Fuc(a1-4)]GlcNAc(b1-2)Man(a1-6)]Man(b1-4)GlcNAc(b1-4)[Fuc(a1-6)]GlcNAc(b1-4)[Fuc(a1-6)]GlcNAc
# How it was run: as §1
# [19] = target: Fuc(a1-2)Gal(b1-3)[Fuc(a1-4)]GlcNAc(b1-3)[Fuc(a1-3)[Gal(b1-4)]GlcNAc(b1-6)]Gal(b1-4)Glc
# How it was run: as §1
# [20] = target: Fuc(a1-2)Gal(b1-3)[Fuc(a1-4)]GlcNAc(b1-3)[Gal(b1-4)GlcNAc(b1-6)]Gal(b1-4)Glc
# How it was run: as §1
# [21] = target: Fuc(a1-2)Gal(b1-4)Fuc(a1-3)]GlcNAc(b1-2)Man(a1-3)[Fuc(a1-2)Gal(b1-4)[Fuc(a1-3)]GlcNAc(b1-2)Man(a1-6)]Man(b1-4)GlcNAc(b1-4)GlcNAc
# How it was run: as §1
# Fuc(a1-2)Gal(b1-4)Glc = target: Fuc(a1-2)Gal(b1-4)Glc
# How it was run: as §1
# Fuc(a1-2)Gal(b1-4)Glc6S = target: Fuc(a1-2)Gal(b1-4)Glc6S
# How it was run: as §1
# Fuc(a1-2)Gal(b1-4)GlcNAc = target: Fuc(a1-2)Gal(b1-4)GlcNAc
# How it was run: as §1
# [22] = target: Fuc(a1-2)Gal(b1-4)GlcNAc(b1-2)Man
# How it was run: as §1
# [23] = target: Fuc(a1-2)Gal(b1-4)GlcNAc(b1-2)Man(a1-3)[Fuc(a1-2)Gal(b1-4)GlcNAc(b1-2)Man(a1-6)]Man(b1-4)GlcNAc(b1-4)GlcNAc
# How it was run: as §1
# [24] = target: Fuc(a1-2)Gal(b1-4)GlcNAc(b1-2)Man(a1-3)[Fuc(a1-2)Gal(b1-4)GlcNAc(b1-2)Man(a1-6)]Man(b1-4)GlcNAc(b1-4)[Fuc(a1-6)]GlcNAc
# How it was run: as §1
binder,measurement,setting,value
PpFlo1 (Pichia pastoris) (protein) MGSSHHHHHHSSGLVPRGSHMQESGDGDISDSAYACDIDATRYDGFNATIYEFQPGDGRLTRDPVFMSTGYLNRTQLHSITGVTDPGFSIYTPGVPTTTLYGIPNVNWENLLLELKGYFRAEVSGDYGLSLRNIDDSAILFFGKETAFQCCNENSISNEASTDYSLFTIFRQEGDETTNLDSFTYTQYLEAGKYYPVRTFFVNIERHAVFNFTMTLPDGTELTDFHNYIYQFGALDEEQCQA,glycan array binding signal (z-score),Fuc(a1-2)Gal,-0.417
same,glycan array binding signal (z-score),Fuc(a1-2)Gal(b1-3)GalNAc,-0.575
same,glycan array binding signal (z-score),[1],-0.102
same,glycan array binding signal (z-score),[2],-0.343
same,glycan array binding signal (z-score),[3],-0.068
same,glycan array binding signal (z-score),[4],-0.29
same,glycan array binding signal (z-score),[5],-0.322
same,glycan array binding signal (z-score),Fuc(a1-2)Gal(b1-3)GlcNAc,-0.144
same,glycan array binding signal (z-score),[6],-0.23
same,glycan array binding signal (z-score),[7],-0.431
same,glycan array binding signal (z-score),[8],-0.455
same,glycan array binding signal (z-score),[9],-0.361
same,glycan array binding signal (z-score),[10],0.121
same,glycan array binding signal (z-score),[11],-0.681
same,glycan array binding signal (z-score),[12],-0.398
same,glycan array binding signal (z-score),[13],-0.076
same,glycan array binding signal (z-score),[14],0.053
same,glycan array binding signal (z-score),[15],-0.484
same,glycan array binding signal (z-score),[16],-0.426
same,glycan array binding signal (z-score),[17],0.443
same,glycan array binding signal (z-score),[18],-0.095
same,glycan array binding signal (z-score),[19],-0.358
same,glycan array binding signal (z-score),[20],-0.099
same,glycan array binding signal (z-score),[21],0.395
same,glycan array binding signal (z-score),Fuc(a1-2)Gal(b1-4)Glc,-0.289
same,glycan array binding signal (z-score),Fuc(a1-2)Gal(b1-4)Glc6S,-0.627
same,glycan array binding signal (z-score),Fuc(a1-2)Gal(b1-4)GlcNAc,-0.381
same,glycan array binding signal (z-score),[22],-0.261
same,glycan array binding signal (z-score),[23],-0.373
same,glycan array binding signal (z-score),[24],0.665
